The values below come from paper PMC10726135.

The list shows a part of the results. At the low end of the ranking the order means little. Measured with an extract: partners may take part in the binding.

This assay has as its target T1, HNF4alpha2 (COS-7 nuclear extract) (UniProt P41235).
T1 sequence: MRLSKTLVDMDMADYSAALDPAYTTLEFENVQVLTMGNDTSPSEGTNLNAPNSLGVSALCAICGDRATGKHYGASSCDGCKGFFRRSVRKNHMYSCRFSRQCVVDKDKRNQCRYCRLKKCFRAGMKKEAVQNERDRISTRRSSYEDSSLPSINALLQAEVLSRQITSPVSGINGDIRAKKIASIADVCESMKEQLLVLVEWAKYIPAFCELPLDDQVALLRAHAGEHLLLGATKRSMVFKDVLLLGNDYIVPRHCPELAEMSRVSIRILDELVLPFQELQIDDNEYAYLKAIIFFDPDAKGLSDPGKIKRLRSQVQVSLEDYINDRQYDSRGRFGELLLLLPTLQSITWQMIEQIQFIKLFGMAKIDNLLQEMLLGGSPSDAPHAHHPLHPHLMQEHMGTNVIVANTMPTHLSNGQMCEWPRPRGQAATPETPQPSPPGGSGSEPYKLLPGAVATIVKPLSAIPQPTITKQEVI
The assay is described as follows: protein-binding microarray. Particulars: COS-7 nuclear extract on double-stranded Agilent 4x180k PBM; binding buffer, salt, pH and temperature not given; high values mean tight binding; double strand, one strand shown; sequences stand for … in …GCCTAGGGAGATTAGAGTATCGGTCGA
Consider CTGACCCTCAGGTTGCCCTAGTGACTCTAG, for which the binding signal (log2 normalized intensity) came out at 1.33.

Turning to CCTGGGGAGCGGCCTGCACCTGTTTCTGGA, the binding signal (log2 normalized intensity) was -0.834. CCTCGGCTCTGCGCAGGCGCAGTCCTCTCT: the binding signal (log2 normalized intensity) is -1.03. For TCGCCCGAGCGCTGCTTCTCGTCCCCGCCC the value was 4.07; for AAGTTACCTACGGGTCAAGGGTTCAGGGCT, 1.59.

For the sequence AATGCTCTGGCCTTTTTTTTGTGTGTGTGT, the binding signal (log2 normalized intensity) was found to be 3.22.

For the sequence AGCATGGCCCAGGGACTCAGGCACACAAAA, the binding signal (log2 normalized intensity) was -1.21. With TGTAGCCAGATAAGAGCTATCAATGACCCA the figure was 1.96; with ACTTATTGTGTTATGTACTTAGTGTTTTAT, 2.54; with AAGCAAGGCTCTTAGCAGAAGCCCTCCTGG, -1.17. With TTGGTGCCTGCAGAGCCTCCCCATTGTAGA, the binding signal (log2 normalized intensity) came out at 2.46. With CTTCCCCTCCTTAGGAAAGAGACATCTGGG the figure was 0.134.

Turning to TGTCCGGACACCAACCTTTGATCATCCGCA, the binding signal (log2 normalized intensity) was 3.73. For ACTATTTGGTGCACAAGAGGGCAGTATTTG the value was 1.17. With GTGTTTTCCGGGGGCGGTTTTTCCATTGTA the figure was 1.53. For CACATTTCTGAGCTGTGGAAACTCCACATG the value was -1.13; for TTCCTGCTGACCCTCTCCCCACCATTAACC, 4.49; for TTCCCACCAAACCTGAAAAACCTCTCTCCA, -1.11. On to TTGAGCTGGATGACCTTTGTCCTGGCACAA, for which the binding signal (log2 normalized intensity) stood at 7.13. GGCTTAAGATAAGGGACATCAACAAAGAAG: the binding signal (log2 normalized intensity) is -1.

As to TTGACCCTTAGGATGTGGGGTATCAGGTGG, the binding signal (log2 normalized intensity) turned out to be 2.79. AAAGGTCACCAGTGAGCCAAGGTACCCTGG: the binding signal (log2 normalized intensity) came to 0.407. With CAACCTTTGAACTGGGTCTTAATAAGATAA the figure was 2.77. For CGATCCTGCCCTTCTGACCTCCCAGGGATA the value was 3.32; for GTGTGAATCGACCTTTAGCACCGTAAGAGA, 5.25.

As for GGAATTTGGGTGATCCTGGTAGCAGGGGTG, the binding signal (log2 normalized intensity) worked out at 1.37.

On to AGAATAGAGGCCTTTGTGCTGACTAAGAGG, for which the binding signal (log2 normalized intensity) was -1.12.

With TCAGGTGTGAACCCAGGCAAAGTCCAGAAA, the binding signal (log2 normalized intensity) stood at 2.96. With TCACCATCCCTGTTGCCTCATCTGAAAAAA the figure was 1.11.

ACCCTGACCTGTCAAGCAATGATCTTCATG: the binding signal (log2 normalized intensity) is 0.32. With ACGAGGTGAGAGGCGGAACAAGGCTGAAGG the figure was -1.14; with CGTTTGCTCCCATCCCCCCAAAGGCTCTCT, 4.38; with GGGAAGGGAGCAGTGGGGACGCCTTCCCCT, -1.2. Turning to GCATCAGGGTCCACAAGGGTTTAAATCTGA, the binding signal (log2 normalized intensity) was 1.03. On to TTTCAGCGTCAATATTTGCTGTCTCTTCCA, for which the binding signal (log2 normalized intensity) is -0.674. For TAACCATATGTCTTAAGCTAACATGTACAG the value was 0.0353; for GGCCAATCCGGCTGGCAGCCGATTGACCTG, 2.88. Regarding CCAGTGAGACCCATTTTGGACTTTGACCTC, the binding signal (log2 normalized intensity) was found to be 11.9. For GTTTTTCTTCCGGTCACATACTCTGGAAAT the value was 1.37; for TCAATAGAGCATGAGAACTTCTTCCAATGA, -1.04; for TTGTGAATAAGGATTATCACTGAATCGAGG, -0.667. With ACCCTCAGCTCCTCTCCTCCATGGCCTGGG, the binding signal (log2 normalized intensity) is -1.2.

In the case of TCTCACTCCAAAGGCTGTTTGCACCGTGTG, the binding signal (log2 normalized intensity) was 1.04. For AGTGACTTAGCAGGATTCTTGCTACAACTG the value was -1.12. For AGGAGAGAGGCCTCTAGATAAACCAAGCCT the value was -1.24; for AACTACAGGGTCTGTGGTAGATTATCTACA, -0.989. With AGTGTTGCTCAAGTCTCCTGTTTTCTTATT, the binding signal (log2 normalized intensity) was 1.09. With CAGGCTCCACCGGATGGATAGGAATTGAGT the figure was -1.15. For AGTAAAGGACAAAGTCAACGGCTCTGCATA the value was -0.951; for ATGGTCTGCTTGATAGCCATCTGGTGGACT, 2.24; for GGCCAGTTCAGCGCGTCTTAGCACTCACCC, -1.03. Turning to AGGTGACAGTTAGGTAAGAGACAAAGGTTG, the binding signal (log2 normalized intensity) was determined as 1.69. For TAAGCACAGGTTTCTGTCCTGGTCACAGTA the value was 0.7; for AGACAACTTAGAATTTCATTTTGCTCTTTG, 0.723; for AAATTTGTGTGTAACATTTGACTTCCCCAA, 2.47. With GCTACGCACCAGGCATACTCCTCCTGGCTT the figure was -1.22. Consider CTTTTCAGTGCAAGGGACCTAGGTGAGCAG, for which the binding signal (log2 normalized intensity) is 1.24. For GGGCAGCCCGTGTGGGCGGGTGCAGCTTCC the value was -0.675; for GAGATAAGGCAAGTCCCTTCCACCTATGAA, -1.22. For CTGGCAAAACTGGTCAATATCCACACAAAC the value was -1.07. With CACACTGCAGCGGCATTCTCTGGTCTGCGG, the binding signal (log2 normalized intensity) was -1.06. For CTGGTACCATGGATGCACTCCATTTACAGA the value was -0.798; for CCACATTCTTTTAGTGTGCTCTGGGTCTGT, 2.63; for GGTGGGCTCCACCCAGTTCGTGCTTCTTGG, -1.08. With TTGCTTCTGCCCCCTGGAGGAGCAAATACT the figure was 2.48; with GGATTTTTGCTGAAGACAGGCCAGGGTGAT, 0.831; with TTTAATACCTCTGATCACTACAAGCTTTGA, -1.1.

As for AGCAGGATAGAAGGAAACAGTTCAGATCTG, the binding signal (log2 normalized intensity) is -0.971. With ATCACAATCCTTAAGCAGCAGATAAGGCTA the figure was -1.21.

In the case of TGAAGTGAAGTTACAAAGGTCACACACCTG, the binding signal (log2 normalized intensity) was determined as 4.3. As to AAACACCCCTCCCCCACACAGACAAAGACA, the binding signal (log2 normalized intensity) was found to be 4.77. For GCCAGTGGGGGTTGGTCTCTAAAACCCCCA the value was -0.751.
